Source: publication PMC4336329 (PLoS ONE, 2015)
Out of some 310,000 compounds screened, about 14,000 (4.5%) showed an effect of 50% or more. Effects have a minus sign here. This is one part of the list.

biological target: human ether-à-go-go-related gene (hERG) potassium channel (human, UniProt Q12809); assay: primary screen, population patch clamp on CHO cells stably expressing hERG
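Further: peak tail current of the secondary pulse compared with the same well before compound.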

Sequence of human ether-à-go-go-related gene (hERG) potassium channel (Q12809 whole entry, looked up): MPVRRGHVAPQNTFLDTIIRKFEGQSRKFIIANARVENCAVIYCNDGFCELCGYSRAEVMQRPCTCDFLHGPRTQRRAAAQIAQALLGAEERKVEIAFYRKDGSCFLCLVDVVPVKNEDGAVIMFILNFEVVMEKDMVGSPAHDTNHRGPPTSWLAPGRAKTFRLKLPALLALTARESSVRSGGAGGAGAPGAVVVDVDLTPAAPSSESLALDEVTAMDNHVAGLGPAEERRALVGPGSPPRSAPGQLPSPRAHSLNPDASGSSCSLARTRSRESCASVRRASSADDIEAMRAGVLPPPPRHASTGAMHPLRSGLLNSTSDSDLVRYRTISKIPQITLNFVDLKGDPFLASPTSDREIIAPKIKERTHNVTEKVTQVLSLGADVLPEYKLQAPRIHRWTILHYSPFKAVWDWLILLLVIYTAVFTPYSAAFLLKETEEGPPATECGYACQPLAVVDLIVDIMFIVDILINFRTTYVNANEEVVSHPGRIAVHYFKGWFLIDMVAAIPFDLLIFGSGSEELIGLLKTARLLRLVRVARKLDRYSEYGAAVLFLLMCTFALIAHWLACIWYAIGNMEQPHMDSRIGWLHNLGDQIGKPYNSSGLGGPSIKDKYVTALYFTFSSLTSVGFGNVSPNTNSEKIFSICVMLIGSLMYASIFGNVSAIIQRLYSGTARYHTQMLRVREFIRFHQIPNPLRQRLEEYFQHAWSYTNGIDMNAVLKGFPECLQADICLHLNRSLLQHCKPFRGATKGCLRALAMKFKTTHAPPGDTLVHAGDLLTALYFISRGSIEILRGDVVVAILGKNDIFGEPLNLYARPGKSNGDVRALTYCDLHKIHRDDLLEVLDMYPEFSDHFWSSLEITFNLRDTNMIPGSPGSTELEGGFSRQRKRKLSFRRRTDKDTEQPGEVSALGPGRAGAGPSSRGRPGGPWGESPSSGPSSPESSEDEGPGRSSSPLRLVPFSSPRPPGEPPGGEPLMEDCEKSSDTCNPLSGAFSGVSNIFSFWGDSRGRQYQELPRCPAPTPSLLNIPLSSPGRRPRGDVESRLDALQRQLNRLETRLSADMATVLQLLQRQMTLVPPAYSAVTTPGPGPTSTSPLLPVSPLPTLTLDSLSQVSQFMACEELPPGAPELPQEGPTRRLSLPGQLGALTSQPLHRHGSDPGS

SMILES | hERG current change (%, negative = inhibition) at 10uM [%]
CCCCn1c(N)c(N(CCOC)C(=O)c2c(C)noc2C)c(=O)[nH]c1=O | 3.51
COc1cccc(NC(=O)COc2ccc(C)cc2)c1 | -10.5
COc1ccccc1NS(=O)(=O)c1ccc2c(c1)CCN2C(=O)CCC(=O)O | 19.4
CC1(C)CC(O)CC(C)(C)N1CC(O)COCc1ccccc1 (centres unmarked) | 11.7
O=C1C([N+](=O)[O-])=C(O)c2cccc3cccc1c23 | 15.4
ClCc1cc2ccccc2nc1Cl | 0.612
CCOC(=O)N1CCC(NC2CCCCCCC2)CC1 | -5.65
Cc1ccc(N)c(C(=O)c2ccc(Br)cc2)c1 | 3.56
Cc1cc(C)c(NC(=O)CSc2nc3ccncc3[nH]2)c(C)c1 | 19.5
CCc1cc(=O)oc2cc(C)cc(OC(C)C(=O)NCCN3CCOCC3)c12 (centres unmarked) | 4.16
Cn1cc(Cl)c(-c2nc3ccccc3[nH]2)n1 | -1.45
CC1(C)OC(=O)C(=CNc2cccc(O)c2)C(=O)O1 | 6.14
COc1ccc(CCn2c(=O)[nH]c3cc(C(=O)NCCCN4CCOCC4)ccc3c2=O)cc1OC | 28.6
COc1cc(C=O)ccc1Oc1nnnn1-c1ccccc1 | 5.77
O=C(c1ccc(F)cc1)N1CCN(C(=O)c2cccnc2)CC1 | 7.35
O=C(CSc1ccccc1)NCCc1ccc(F)cc1 | 10.8
COc1ccc(-c2noc(N3CCC(C(=O)Nc4ccccc4F)CC3)n2)cc1 | -1.98
C=CCNS(=O)(=O)c1ccc(N2C(=O)c3ccccc3C2=O)cc1 | -14.8
CCCNC(=O)c1ccc(S(=O)(=O)c2ccc(OC)cc2)c([N+](=O)[O-])c1 | -31.2
O=C(Nn1cnnc1)c1ccccc1-c1ccccc1 | 8.34
COc1ccc(/C=C/C2=CC(C)(C)NC(=S)N2)cc1 | 24.3
CC(C)NC(=O)c1onc(CSc2ccccc2F)c1C(=O)O | 12
N#Cc1ccc(OCC(=O)NCCN2CCOCC2)cc1 | -11.7
COc1ccc(NC(=S)N2CCNC(=O)C2CC(=O)Nc2ccc(C)cc2)cc1 (centres unmarked) | 4.88
CN(CCc1ccccn1)C1CC(=O)N(c2ccc(Cl)cc2)C1=O (centres unmarked) | 6.39
CCc1ccc(N=C2NC(=O)/C(=C/c3ccc(OCC(=O)O)cc3)S2)cc1 | 14.6
